According to PMC4336329 (PLoS ONE, 2015):
Among all 310,000 compounds or so, about 14,000 (4.5%) showed an effect of 50% or more. The effect is printed as a negative number. The list shows a part of the results.

Each compound was assayed against human ether-à-go-go-related gene (hERG) potassium channel (human, UniProt Q12809) (assay: primary screen, population patch clamp on CHO cells stably expressing hERG).
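Note: peak tail current of the secondary pulse compared with the same well before compound.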

Sequence of human ether-à-go-go-related gene (hERG) potassium channel (Q12809 whole entry, looked up): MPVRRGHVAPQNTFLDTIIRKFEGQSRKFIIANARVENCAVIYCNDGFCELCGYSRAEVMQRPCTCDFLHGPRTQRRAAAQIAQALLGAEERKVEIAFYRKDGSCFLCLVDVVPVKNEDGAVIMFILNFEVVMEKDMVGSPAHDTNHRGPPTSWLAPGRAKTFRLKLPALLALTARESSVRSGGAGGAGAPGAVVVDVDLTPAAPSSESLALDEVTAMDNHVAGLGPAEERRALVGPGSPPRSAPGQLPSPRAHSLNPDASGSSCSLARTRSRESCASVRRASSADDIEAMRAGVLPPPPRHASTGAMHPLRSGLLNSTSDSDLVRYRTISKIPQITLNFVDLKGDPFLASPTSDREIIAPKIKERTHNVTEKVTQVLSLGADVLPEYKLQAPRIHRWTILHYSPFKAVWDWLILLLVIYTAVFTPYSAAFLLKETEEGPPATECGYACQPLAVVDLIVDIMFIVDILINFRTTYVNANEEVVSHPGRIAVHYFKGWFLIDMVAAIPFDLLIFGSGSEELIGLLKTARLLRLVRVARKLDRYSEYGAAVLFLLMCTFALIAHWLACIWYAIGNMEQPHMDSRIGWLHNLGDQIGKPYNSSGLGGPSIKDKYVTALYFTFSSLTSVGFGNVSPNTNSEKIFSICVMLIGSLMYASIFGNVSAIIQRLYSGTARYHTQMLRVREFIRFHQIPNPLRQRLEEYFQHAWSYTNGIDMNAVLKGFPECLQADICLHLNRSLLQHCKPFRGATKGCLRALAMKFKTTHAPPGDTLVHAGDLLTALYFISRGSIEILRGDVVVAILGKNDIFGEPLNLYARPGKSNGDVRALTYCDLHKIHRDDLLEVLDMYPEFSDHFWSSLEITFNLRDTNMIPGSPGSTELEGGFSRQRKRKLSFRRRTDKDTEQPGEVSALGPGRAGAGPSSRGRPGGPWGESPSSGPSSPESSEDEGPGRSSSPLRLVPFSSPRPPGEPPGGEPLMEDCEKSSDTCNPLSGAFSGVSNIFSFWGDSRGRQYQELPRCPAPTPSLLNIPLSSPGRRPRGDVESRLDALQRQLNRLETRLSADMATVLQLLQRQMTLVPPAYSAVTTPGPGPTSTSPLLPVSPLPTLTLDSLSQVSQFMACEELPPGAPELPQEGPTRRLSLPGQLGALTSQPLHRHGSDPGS

| SMILES | hERG current change (%, negative = inhibition) at 10uM [%] |
| --- | --- |
| CC(=O)CCc1ccc(OCC(O)CNCCOc2ccc(C)cc2)cc1 (stereo not shown) | -55.9 |
| O=C1CSC(=S)N1c1cccc(F)c1 | 18.3 |
| COC(=O)[C@@H]1C[C@H]2CC[C@H](O)C[C@H]2N1Cc1ccc(Cl)cc1 | 5.3 |
| [Br-].c1ccc(C[n+]2ccc3ccccc3c2)cc1 | 1.66 |
| COc1cc(C(=O)N(CCc2ccccc2)C2=CC3CCC(C2)N3C)cc(OC)c1OC.Cl.O (stereo not shown) | -29.2 |
| COCCCNC(=O)CCn1c(=O)c2ccccc2n(CC(=O)NCCC2=CCCCC2)c1=O | 18.5 |
| CCCCCCCCCC(=O)NNC(=O)c1c(O)c2ccccc2n(CCC)c1=O | 32 |
| COc1ccccc1Nc1nnc(SCC(=O)Nc2cc(C)on2)s1 | 0.814 |
| CCOc1ccc(S(=O)(=O)NCc2ccco2)c2ccccc12 | -5.08 |
| N=C1/C(=C/c2ccc(-c3cccc(C(=O)O)c3)o2)C(=O)N=C2SC(CC(=O)N3CCOCC3)=NN12 | 10.9 |
| CCCCCCCC1(C)NC(=O)N(c2ccccc2)N1 (stereo not shown) | 4.43 |
| O=C(Nc1cccc(C(=O)N2CCOCC2)c1)c1cncc(Br)c1 | 6.33 |
| O=C(CN(Cc1ccccc1Cl)C(=O)c1csnn1)NCc1ccc(F)cc1 | -50.4 |
| CCOC(=O)c1ccc(-[n+]2c(-c3ccccc3)cc(-c3ccccc3)cc2-c2ccccc2)cc1.[O-][Cl+3]([O-])([O-])[O-] | -77.9 |
| COc1ccc(OC)c(/C=N/NC(=O)c2ccc(Cn3cc([N+](=O)[O-])cn3)o2)c1 | 1.58 |
| COc1ccc(-c2nnn(CC(=O)N3CCN(c4ccccc4OC)CC3)n2)cc1 | 0.349 |
| Cl.Oc1ccc(Nc2ncnc3c2oc2ccccc23)cc1 | -4.8 |
| COc1cc2c(cc1OC)C(COc1ccc(F)cc1)NCC2 (stereo not shown) | -26.8 |
| O=C(Nc1ccc(N2CCOCC2)c2nonc12)C1CCCC1 | 3.34 |
| CC(=O)Nc1sc2c(c1C#N)CCC(C)C2 (stereo not shown) | -3.48 |
| Cc1ccc(C)c(N2CCN(C(=O)Cc3cn(C)c4ccccc34)CC2)c1 | 5.99 |
| COc1ccc(CCNC(=O)c2cc([N+](=O)[O-])cc([N+](=O)[O-])c2)cc1OC | 12 |
| CCCn1c(O)c(N=NC(=O)c2ccco2)c2ccccc21 | -1.01 |
| COc1cccc(C2NC(=O)CCC2[N+](=O)[O-])c1OC (stereo not shown) | 14.4 |
| Cc1nn2c(=O)cc(CSc3ccccc3NC(=O)c3ccccc3F)nc2s1 | -3.29 |
| CCOC(=O)C(=O)NN=C(c1ccccc1)c1ccccc1 | 9.79 |
| O=C(O)CSCC(=O)Nc1ccc(Br)c(C(F)(F)F)c1 | 15 |
| COc1ccccc1NC(=S)NC(=O)CCCOc1ccc(Cl)cc1Cl | 18.2 |

| SMILES | hERG current change (%, negative = inhibition) at 10uM [%] |
| --- | --- |
| O=C(COc1ccccc1)N1CCN(Cc2c[nH]c3ccccc23)CC1 | -47.4 |
| CC(C)(C)c1ccc(C(=O)N2CCCN(C(=O)c3ccc(C(C)(C)C)cc3)CC2)cc1 | -10.2 |
| COc1ccc(OC)c(S(=O)(=O)Nc2ccc3oc(C)c(C(C)=O)c3c2)c1 | -0.667 |
| CC(=O)Oc1ccc(N(C(C)=O)S(=O)(=O)c2ccc(C)c([N+](=O)[O-])c2)cc1 | 11.6 |
| COc1ccc(OCC(O)CN2CCN(c3ncccn3)CC2)cc1.Cl (stereo not shown) | -17.8 |
| O=c1[nH]cccc1-c1nc2ccccc2n1Cc1ccccc1F | 4.82 |
| CN1C(=O)C(C)(C)c2cc(S(=O)(=O)N3CCCCCC3)ccc21 | 2.44 |
| Cc1ccc(Sc2ccc(C(=O)NC(C)C)cc2[N+](=O)[O-])cc1 | 7.05 |
| O=C(CS(=O)(=O)c1ccccc1)N1CCN(c2ccccc2)CC1 | 2.36 |
| Cc1ccccc1NC(=O)C1Cc2ccccc2CN1C(=O)c1ccco1 (stereo not shown) | -2.82 |
| COc1cccc(CN(C)C(=O)CNC(=O)c2sc3ccccc3c2Cl)c1OC | -11.1 |
| COc1ccc(N=Cc2[nH]c3ccccc3c2O)cc1 | 13.2 |
| CCOc1cc(C2C(C(=O)OC)=C(C)N=C3SCCC(=O)N32)ccc1OC(C)=O (stereo not shown) | 10.3 |
| NC(N)=N/N=C/c1cc([N+](=O)[O-])ccc1O | -4.41 |
| CC(=O)c1cccc(NC(=O)N2CCCC2C(=O)Nc2ccccc2C)c1 (stereo not shown) | -2.6 |
| Cc1cc(C(=O)NNC(=O)/C=C/c2ccccc2Cl)c(C)o1 | 24.9 |
| CN(C)c1nc(SCC(=O)Nc2ccccc2)nc(N2CCOCC2)n1 | 12.5 |
| O=C(NC1CCCC1)C(=O)N(Cc1cccnc1)C(C(=O)NC1CCCC1)c1ccco1 (stereo not shown) | 19.6 |
| Cc1ccc(CCN2CC(C(=O)NCc3cccnc3)CC2=O)cc1 (stereo not shown) | -1.22 |
| COCC(=O)N1CCC(Oc2ccc(C(=O)N(C)C3CCCCC3)cc2)CC1 | 15.7 |
| O=C(CN1CCN(Cc2ccccc2)CC1)Nc1ccccc1 | -26.9 |
| C#CCn1cc(/C=N/NC(=O)c2cc3ccccc3o2)c2ccccc21 | -0.0638 |
| COc1cccc(NC(=O)C2C3C=CC4(O3)C2C(=O)N(CCCN2CCCC(C)C2)C4C(=O)NC2CCCCC2C)c1 (stereo not shown) | 9.9 |
| COc1cc(C2c3[nH]c4ccccc4c3C[C@@H]3C(=O)N(Cc4ccco4)CC(=O)N23)cc(OC)c1OC (stereo partly shown) | -13.9 |
| COc1ccc(NC(=O)N2CCn3c2nc2ccccc23)cc1 | -11.6 |
| Cc1cc(C(=O)COC(=O)CCCN2C(=O)c3ccccc3C2=O)c(C)n1C | -11.6 |
| COc1ccc(-c2n[nH]c(=S)n2/N=C/C=C\c2ccccc2OC)cc1 | 15.4 |
